From PubChem BioAssay (NCATS)
Where “and” joins values, the source holds several entries; their conditions need not be identical. Identical values can stand only once. This list was built around the results that the source calls inconclusive (neither active nor inactive); the mix of calls is not that of the screen. Potencies of inconclusive entries are doubtful fits and often do not repeat. Calls of active or inactive are those of the source. Calls follow the shape of the dose curve; as a rule, active = well fitted curve in the direction sought with a large enough effect; inconclusive = small, poorly fitted or top-dose-only effect, or another doubt; inactive = no such curve, though single readings can be large; an effect the other way counts as inactive or inconclusive.

Tests used:
[1] = molecular target: Phospholipid hydroperoxide glutathione peroxidase GPX4 (Homo sapiens) (UniProt P36969); experiment: Primary qHTS Assay for Inhibitors of Recombinant Selenoprotein Glutathione Peroxidase 4 (GPX4) (AID 1845192); details: recombinant GPX4, GR-coupled NADPH fluorescence, 15 min; series mostly up to 50 µM; also: nearly all actives have a fitted effect of over 65% in size
Sequence of UniProt P36969 (P36969 whole entry, looked up): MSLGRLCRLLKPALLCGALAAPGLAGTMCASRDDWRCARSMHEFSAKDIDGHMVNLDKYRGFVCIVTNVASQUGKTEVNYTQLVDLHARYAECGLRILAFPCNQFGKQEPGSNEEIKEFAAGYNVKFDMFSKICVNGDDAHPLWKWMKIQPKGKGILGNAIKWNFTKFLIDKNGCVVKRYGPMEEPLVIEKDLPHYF
In short: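 NADPH consumption, followed by fluorescence at 340/450 nm between 0 and 15 min, reports GPX4 activity via coupled glutathione reductase (100 nM). Enzyme 200 nM was pre-exposed to compound 30 min; 0.5 mM cumene hydroperoxide and 1 mM GSH served as substrates.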

[2] = Quantitative High-Throughput drug screen in 47 multiple myeloma cell lines against the NCATS MIPE library collection: Delta47_JCRB cell viability assay (AID 1918925; also: nearly all actives have a fitted effect of over 45% in size); details: Delta47 myeloma viability, CellTiter-Glo ATP, 48 h; viability (% of DMSO): at 45.8 µM (top of the series) unless noted
In short: (§1)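 Primary qHTS used for cherry-picking: cells at 500/well, library compounds for 48 h (37C, 5% CO2), luminescent ATP assay.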

[3] = Quantitative High-Throughput drug screen in 47 multiple myeloma cell lines against the NCATS MIPE library collection: EJM_DSMZ cell viability assay (AID 1918926; also: nearly all actives have a fitted effect of over 30% in size); details: EJM myeloma cell viability, CellTiter-Glo ATP, 48 h; series mostly up to 45.8 µM
In short: as §1

[4] = Quantitative High-Throughput drug screen in 47 multiple myeloma cell lines against the NCATS MIPE library collection: AMO1_DSMZ cell viability assay (AID 1918927; also: nearly all actives have a fitted effect of over 30% in size); details: AMO1 myeloma cells viability, CellTiter-Glo ATP luminescence, 48 h; series mostly up to 45.8 µM
In short: as §1

[5] = Quantitative High-Throughput drug screen in 47 multiple myeloma cell lines against the NCATS MIPE library collection: Karpas620_DSMZ cell viability assay (AID 1918959); details: Karpas620 myeloma viability, CellTiter-Glo ATP luminescence, 48 h; series mostly up to 45.8 µM; also: nearly all actives have a fitted effect of over 30% in size
In short: (§2)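 Luminescent ATP measurement with CellTiter-Glo gives viability, scaled between DMSO-only wells (100%) and media-only wells (0%). Cells, 500 per well, faced library compounds for 48 hours at 37C.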

[6] = Quantitative High-Throughput drug screen in 47 multiple myeloma cell lines against the NCATS MIPE library collection: KMM1_JCRB cell viability assay (AID 1918960); details: KMM1 myeloma viability, CellTiter-Glo ATP luminescence, 48 h; viability (% of DMSO): at 45.8 µM (top of the series); also: nearly all actives have a fitted effect of over 30% in size
In short: (§3)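 Myeloma cells, 500 per well, were exposed to MIPE 4.0 drugs by pin transfer for 48 h at 37 °C, 5% CO2. Viability was read as ATP luminescence with CellTiter-Glo, normalised to DMSO-only (100%) and medium-only (0%) wells.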

[7] = Quantitative High-Throughput drug screen in 47 multiple myeloma cell lines against the NCATS MIPE library collection: Karpas417_ECACC cell viability assay (AID 1918961); details: Karpas417 myeloma viability, CellTiter-Glo ATP luminescence, 48 h; viability (% of DMSO): at 45.8 µM (top of the series) unless noted
In short: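 Steps: seed 500 cells per well; pin-transfer MIPE 4.0 library; incubate 48 h at 37C, 5% CO2, humidified; add CellTiter-Glo, 5 min room temperature; read luminescence.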

[8] = Quantitative High-Throughput drug screen in 47 multiple myeloma cell lines against the NCATS MIPE library collection: KHM11_PLB cell viability assay (AID 1918962); details: KHM11 myeloma cell viability, CellTiter-Glo ATP luminescence, 48 h; series mostly up to 45.8 µM; also: nearly all actives have a fitted effect of over 35% in size
In short: as §2

[9] = Quantitative High-Throughput drug screen in 47 multiple myeloma cell lines against the NCATS MIPE library collection: FR4_PLB cell viability assay (AID 1918924; also: nearly all actives have a fitted effect of over 35% in size); details: FR4_PLB myeloma cells viability, CellTiter-Glo ATP, 48 h; series mostly up to 45.8 µM
In short: as §2

[10] = Quantitative High-Throughput drug screen in 47 multiple myeloma cell lines against the NCATS MIPE library collection: ARP1_JJKsccF8 cell viability assay (AID 1918928; also: nearly all actives have a fitted effect of over 40% in size); details: ARP1 myeloma cells viability, CellTiter-Glo ATP, 48 h; viability: at 45.8 µM (top of the series)
In short: as §3

[11] = Quantitative High-Throughput drug screen in 47 multiple myeloma cell lines against the NCATS MIPE library collection: ARD_JJKsccE7 cell viability assay (AID 1918929); details: ARD myeloma cell line viability, CellTiter-Glo, 48 h; series mostly up to 45.8 µM
In short: as §1

[12] = molecular target: Glutathione peroxidase 1 (Homo sapiens) (UniProt P07203); experiment: Primary qHTS Assay for Inhibitors of Recombinant Selenoprotein Glutathione Peroxidase 1 (GPX1) (AID 1845191); details: recombinant GPX1, GR-coupled NADPH fluorescence, 15 min; series mostly up to 48.8 µM; also: nearly all actives have a fitted effect of over 65% in size
Sequence of UniProt P07203 (P07203 whole entry, looked up): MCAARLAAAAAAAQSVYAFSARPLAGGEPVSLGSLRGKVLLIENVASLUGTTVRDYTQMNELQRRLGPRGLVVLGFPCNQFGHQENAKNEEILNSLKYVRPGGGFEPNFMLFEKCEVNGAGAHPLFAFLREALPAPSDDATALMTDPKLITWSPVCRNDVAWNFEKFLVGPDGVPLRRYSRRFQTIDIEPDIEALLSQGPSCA
In short: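 10 nM GPX1 + cpd, 30 min RT; start w/ 1 mM GSH, 0.5 mM cumene hydroperoxide, 0.5 mM NADPH, 100 nM GR, 0.01% BSA; buffer 50 mM Tris-HCl pH 7.5, 2 mM EDTA, 150 mM NaCl; Fl 340/450, 0 & 15 min.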

[13] = Primary redox qHTS assay for identification of artifact compounds. (AID 1845223); details: Amplex Red/HRP redox cycling with DTT, fluorescence; series mostly up to 53.8 µM
In short: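 Amplex Red (25 uM) and HRP (250 mU/mL) in HBSS, with compounds for 15 min, then 250 uM DTT for 30 min, room temperature, dark. Fluorescence 525/598 nm read; normalized to DMSO and 10 uM DA3003; Hill fit.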
Potency is read from the fitted curve at half-maximal effect; tags tell the direction and shape of the fitted curve.

What does the source list for `CC1(C)CCC(C)(C)c2cc(NC(=O)c3ccc(C(=O)O)cc3)ccc21`?
Potency [1]: active: 10 µM and inconclusive: 22.7 µM [inhibitor, single point]; Potency [2]: active: 16.6 µM; Potency [3]: inconclusive: 5.26 µM [cytotoxic, partial curve]; Potency [4]: inconclusive: 11.8 µM [cytotoxic, partial curve, poor fit]; Potency [5]: inconclusive: 14.8 µM [cytotoxic, partial curve, poor fit]; Potency [6]: inconclusive: 16.6 µM [cytotoxic, partial curve]; Potency [7]: inconclusive: 9.35 µM [cytotoxic, partial curve, poor fit]; Potency [8]: inconclusive: 29.6 µM [cytotoxic, single point]

Which Potency [1] does the source give for `CCOC(=O)c1c(CSc2ccccc2)n(C)c2cc(Br)c(O)c(CN(C)C)c12` here?
The Potency was inconclusive: 11.4 µM [inhibitor, partial curve].

And the Potency [9]?
The Potency was inconclusive: 16.6 µM [cytotoxic, partial curve, poor fit].

What about the Potency [2] of the same compound?
Its Potency is inconclusive: 16.6 µM [cytotoxic, partial curve, poor fit].

What about the Potency [3] of the same compound?
Its Potency is inconclusive: 10.5 µM [cytotoxic, partial curve, poor fit].

And the Potency [4]?
Its Potency is active: 26.4 µM.

And the Potency [10]?
Its Potency is inconclusive: 10.5 µM [cytotoxic, partial curve].

What about the Potency [11] of the same compound?
Its Potency is inconclusive: 26.4 µM [cytotoxic, single point].

And the Potency [5]?
The Potency was inconclusive: 20.9 µM [cytotoxic, partial curve].

What about the Potency [6] of the same compound?
Its Potency is inconclusive: 18.7 µM [cytotoxic, partial curve].

What about the Potency [7] of the same compound?
Its Potency is inconclusive: 37.2 µM [cytotoxic, single point].

And the Potency [8]?
The Potency was “inactive”.

With `COCCOC(=O)C1=C(C)NC2=C(C(=O)CC(c3ccccc3OC)C2)C1c1cccc(O)c1` (stereo not given) as the compound, how does the Potency [12] read?
Its Potency is inconclusive: 28.6 µM [inhibitor, partial curve, poor fit].

And the Potency [3]?
Its Potency is inconclusive: 1.66 µM [cytotoxic, partial curve, poor fit].

What about the Potency [4] of the same compound?
The Potency was active: 11.8 µM.

What about the Potency [5] of the same compound?
The Potency was inconclusive: 14.8 µM [cytotoxic, partial curve].

What about the Potency [6] of the same compound?
Its Potency is inconclusive: 13.2 µM [cytotoxic, partial curve].

And the Potency [8]?
The Potency was active: 11.8 µM.

Which Potency [12] does the source give for `Cc1cn([C@@H]2C[C@@H](O)[C@H](CO)O2)c(=O)[nH]c1=O` here?
Its Potency is “inactive”.

What about the Potency [2] of the same compound?
The Potency was “inactive”.

And the Potency [4]?
The Potency was “inactive”.

And the Potency [7]?
Its Potency is “inactive”.

What about the Potency [8] of the same compound?
The Potency was “inactive”.

For `N[C@H]1CN(c2c(F)cc3c(=O)c(C(=O)O)cn(C4C[C@@H]4F)c3c2Cl)CC12CC2` (stereo not given in full), which Potency [1] is on record?
The Potency was inconclusive: 22.4 µM [inhibitor, single point].

And the Potency [9]?
Its Potency is “inactive”.

And the Potency [2]?
Its Potency is “inactive”.

And the Potency [4]?
The Potency was “inactive”.

And the Potency [7]?
The Potency was inconclusive: 0.833 µM [rising, full curve, poor fit].

And the Potency [8]?
Its Potency is “inactive”.

Which Potency [12] does the source give for `NS(=O)(=O)c1ccc(NC2=CC(=O)c3ccccc3C2=O)cc1` here?
The Potency was inconclusive: 0.728 µM [inhibitor, full curve].

And the Potency [6]?
Its Potency is inconclusive: 1.18 µM [cytotoxic, full curve].

What about the Potency [7] of the same compound?
Its Potency is inconclusive: 4.69 µM [cytotoxic, partial curve, poor fit].

What about the Potency [8] of the same compound?
Its Potency is inconclusive: 2.64 µM [cytotoxic, full curve, poor fit].

For `CC(C)C(C)C=CC(C)C1CCC2C3=CC=C4CC(O)CCC4(C)C3CCC21C` (stereo not given), which Potency [12] is on record?
Its Potency is “inactive”.

And the Potency [4]?
The Potency was “inactive”.

What about the Potency [11] of the same compound?
Its Potency is “inactive”.

What about the Potency [7] of the same compound?
The Potency was “inactive”.

What about the Potency [8] of the same compound?
Its Potency is inconclusive: 16.6 µM [cytotoxic, partial curve, poor fit].

For `CCCCCCCCCC(=O)N[C@@H](Cc1c[nH]c2ccccc12)C(=O)N[C@H](CC(N)=O)C(=O)N[C@@H](CC(=O)O)C(=O)N[C@@H]1C(=O)NCC(=O)N[C@@H](CCCN)C(=O)N[C@@H](CC(=O)O)C(=O)N[C@H](C)C(=O)N[C@@H](CC(=O)O)C(=O)NCC(=O)N[C@H](CO)C(=O)N[C@@H]([C@@H](C)CC(=O)O)C(=O)N[C@@H](CC(=O)c2ccccc2N)C(=O)O[C@@H]1C`, which Potency [1] is on record?
Its Potency is inconclusive: 5.62 µM [inhibitor, partial curve].

What about the Potency [13] of the same compound?
The Potency was inconclusive: 1.78 µM [activator, full curve, poor fit].

And the Potency [9]?
The Potency was inconclusive: 5.26 µM [rising, full curve].

And the Potency [2]?
Its Potency is “inactive”.

What about the Potency [4] of the same compound?
Its Potency is “inactive”.

And the Potency [11]?
Its Potency is inconclusive: 0.0037 µM [cytotoxic, full curve, poor fit].

And the Potency [5]?
Its Potency is “inactive”.

And the Potency [6]?
The Potency was “inactive”.

And the Potency [8]?
The Potency was “inactive”.

Which results are given for `CNC(=O)c1cc(Oc2ccc(NC(=O)Nc3ccc(Cl)c(C(F)(F)F)c3)c(F)c2)ccn1`?
Potency [1]: inconclusive: 7.08 µM [inhibitor, partial curve]; Potency [2]: inconclusive: 3.72 µM [cytotoxic, full curve]; Potency [3]: inconclusive: 26.4 µM [cytotoxic, single point]; Potency [10]: active: 23.5 µM; Potency [6]: active: 2.96 µM; Potency [7]: active: 4.69 µM
